# About 14,000 (4.5%) of roughly 310,000 compounds showed an effect of 50% or more. The effect is printed as a negative number. The list shows a part of the results.
# Molecular target: human ether-à-go-go-related gene (hERG) potassium channel (human, UniProt Q12809)
# Assay: primary screen, population patch clamp on CHO cells stably expressing hERG
# 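Further: peak tail current of the secondary pulse compared with the same well before compound.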
# Chain of human ether-à-go-go-related gene (hERG) potassium channel (Q12809 whole entry, looked up): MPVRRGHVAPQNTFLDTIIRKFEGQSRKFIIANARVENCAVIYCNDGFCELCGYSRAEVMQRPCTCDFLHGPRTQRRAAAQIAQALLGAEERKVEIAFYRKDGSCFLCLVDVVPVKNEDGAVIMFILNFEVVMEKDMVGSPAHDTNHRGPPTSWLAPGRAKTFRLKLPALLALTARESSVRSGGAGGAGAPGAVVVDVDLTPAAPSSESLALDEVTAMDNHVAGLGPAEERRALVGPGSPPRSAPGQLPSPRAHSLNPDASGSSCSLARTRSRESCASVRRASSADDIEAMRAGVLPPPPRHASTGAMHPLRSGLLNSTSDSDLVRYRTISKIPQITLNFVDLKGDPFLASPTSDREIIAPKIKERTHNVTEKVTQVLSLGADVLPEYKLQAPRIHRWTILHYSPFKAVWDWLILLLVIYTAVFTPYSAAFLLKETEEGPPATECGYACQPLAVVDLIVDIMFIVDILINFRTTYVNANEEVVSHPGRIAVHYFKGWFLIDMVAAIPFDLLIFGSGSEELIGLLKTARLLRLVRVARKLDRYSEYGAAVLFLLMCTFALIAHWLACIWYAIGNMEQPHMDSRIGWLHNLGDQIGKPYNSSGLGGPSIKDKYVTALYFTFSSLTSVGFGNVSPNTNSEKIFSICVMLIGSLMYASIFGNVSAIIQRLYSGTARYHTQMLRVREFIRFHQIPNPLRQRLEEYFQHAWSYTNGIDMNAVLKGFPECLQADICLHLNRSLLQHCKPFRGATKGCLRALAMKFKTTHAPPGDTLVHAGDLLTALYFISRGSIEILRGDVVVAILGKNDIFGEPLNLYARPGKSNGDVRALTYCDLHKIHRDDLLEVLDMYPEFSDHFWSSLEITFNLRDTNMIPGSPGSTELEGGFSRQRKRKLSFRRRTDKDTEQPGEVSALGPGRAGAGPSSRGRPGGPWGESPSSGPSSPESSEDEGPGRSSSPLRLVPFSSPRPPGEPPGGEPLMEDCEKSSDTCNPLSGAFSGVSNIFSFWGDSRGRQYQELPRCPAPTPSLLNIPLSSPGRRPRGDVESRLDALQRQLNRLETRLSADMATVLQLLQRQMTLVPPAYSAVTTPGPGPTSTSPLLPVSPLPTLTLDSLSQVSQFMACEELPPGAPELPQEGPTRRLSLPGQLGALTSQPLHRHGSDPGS
row,SMILES,"hERG current change (%, negative = inhibition) at 10uM [%]"
1,CC(C)Cn1c(N)c(C(=O)CSc2nccn2C)c(=O)n(C)c1=O,-4.67
2,C/C(=N\NC(=S)NC(C)C)c1ccc(Cl)c([N+](=O)[O-])c1,9
3,COc1cccc(-c2nc(N3CCN(C)CC3)c3ccccc3n2)c1O,-30.8
4,Cc1ccc(N=C2C(=O)Nc3c(C)cccc32)cc1,5.71
5,C/C(CCc1ccc2c(c1)OCO2)=N\N=C1\NC(=O)CC(C(=O)Nc2ccc(Cl)cc2)S1 (centres unmarked),-5.97
6,CN(C)c1ccc(/C=N/NC(=O)c2ccco2)cc1,1
7,COc1ccccc1CC(=O)Nc1cccc(C)n1,15.6
8,Nc1ccccc1C(=O)c1ccccc1,-2.49
9,CCN(CC(=O)NCc1ccc(F)cc1)C(=O)/C=C/c1ccco1,-9.64
10,Cc1ccccc1CNC(=O)Cc1cccs1,15.9
11,CCc1ccc(C2NC(c3ccc(CC)cc3)C([N+](=O)[O-])C(C)(C)C2[N+](=O)[O-])cc1 (centres unmarked),0.716
12,Cc1ccccc1-c1nnc(SCCOc2ccc3c(C)cc(=O)oc3c2)o1,-4.38
13,CN(C)C(=O)COc1ccc(Oc2ccccc2)cc1,-30.5
14,COCCNC(=O)CN(Cc1ccc(F)cc1)C(=O)CCC(=O)Nc1nccs1,-4.06
15,CCOCCN1CCN(C(=O)CN2CCCC2=O)CC1.O=C(O)/C=C\C(=O)O,-1.99
16,Cc1ccc(CNc2nc(N)c([N+](=O)[O-])c(Nc3ccc(F)cc3)n2)cc1,4.36
17,COc1cccc(/C=N/NC(=O)Cn2nc([N+](=O)[O-])cc2C)c1,2.68
18,CC(=O)N1CCc2ccccc2C1CC(=O)O (centres unmarked),14.4
19,CC(=O)N1CCN(C(=O)c2ccc(NS(=O)(=O)c3ccc4[nH]c(=O)[nH]c4c3)cc2)CC1,4.18
20,CCc1ccccc1NC(=O)[C@@H]1CCC(=O)N1C1OC(=O)c2ccccc21 (some centres unmarked),20.1
21,O=C(CCNS(=O)(=O)c1cccc2nonc12)NC1CCCCC1,5.48
22,O=C(c1cc(-c2ccco2)on1)N1CCOCC1,12.5
23,CC(=O)Nc1ccc2nc(NC(=O)COc3ccc(C)cc3)sc2c1,18.1

row,SMILES,"hERG current change (%, negative = inhibition) at 10uM [%]"
1,O=C(O)CCN1C(=O)CC2(CCCCC2)C1=O,8.07
2,CCOc1ccccc1C(=O)Nc1nccs1,-8.92
3,CCOc1ccccc1NC(=O)CN(C)S(=O)(=O)c1cccc2nsnc12,-19
4,Cc1ccc(S(=O)(=O)N2CCC(C(=O)NCCCN3CCOCC3)CC2)cc1C,-6.75
5,Fc1ccc(-n2nnc(-c3cccnc3Cl)n2)cc1,6.46
6,COc1ccc(-n2nc(C(=O)NCC(=O)N3CC(C)CC(C)C3)c3ccccc3c2=O)cc1OC (centres unmarked),4.15
7,O=S(=O)(c1ccccc1)c1nc(-c2cccs2)oc1NCc1cccnc1,-50.5
8,CCOC(=O)C1CCN(C(=O)CN(c2cc(OC)ccc2OC)S(=O)(=O)c2ccccc2)CC1,-2.73
9,O/C(=C\c1ccc2ccccc2n1)c1ccc(O)cc1O,4.33
10,O=C(CSCC(=O)N1CCCCC1)Nc1nc(-c2cccs2)cs1,-33.5
11,Cc1ccc(NC(=O)c2cc(C)nc3ccccc23)cc1,12.8
12,C/C(Cn1nnc2ccccc21)=N\OC(=O)c1cc(F)c(F)cc1Cl,-80.5
13,COc1cccc2c1O/C(=N\O)C(C(=O)Nc1cccc(Br)c1)C2 (centres unmarked),18.6
14,N#Cc1c(Cl)c(Cl)c2nnc(-c3ccc(Br)cc3)n2c1Cl,-15.2
15,CCCCN(CC)Cc1c(O)ccc2c3c(c(=O)oc12)CCC3,-14.4
16,O=C1CN(C(=O)c2ccc(Br)o2)C(c2ccccc2)c2cc(F)ccc2N1 (centres unmarked),-45.3
17,O=C1OCc2cc(-n3cccc3)ccc21,-6.92
18,Nc1nncn1C(=O)CCCOc1ccccc1,12.1
19,CC/C(=N\O)c1ccc(OC)c(OC)c1,21.1
20,O=c1[nH]c(=O)n(Cc2ccccc2)c(O)c1C=Nc1ccc(CN2CCOCC2)cc1,4.33
21,Fc1ccc(COc2ccc3ccccc3c2CNc2nn[nH]n2)cc1,2.22
22,O=C(CC1SC(=NCC2CCCO2)NC1=O)Nc1cccc2ccccc12 (centres unmarked),-26.6
23,CCOC(=O)NC(NC(=O)OCC)C(=O)c1ccccc1,-0.854

row,SMILES,"hERG current change (%, negative = inhibition) at 10uM [%]"
1,O=C(NCCCn1ccnc1)c1nc(Cn2ccc([N+](=O)[O-])n2)no1,9.49
2,Cc1ccc(-c2nc(NCCN(C)C)c3ccccc3n2)cc1,-44.9
3,COc1cc(C(=O)NCCC(C)C)ccc1OCc1ccc(Cl)cc1Cl,-0.57
4,CCCCCCn1c(N2CCC(C)CC2)nc2c1c(=O)[nH]c(=O)n2C,-14.9
5,Cc1ccc(N/C=C/C(=O)C(C)(C)C)c(O)c1,-5.33
6,COc1ccccc1CNC(=O)COc1cccc(-n2cnnn2)c1,-13.8
7,CC(NC(=O)COc1ccc(-c2nnco2)cc1)c1ccc(Cl)cc1Cl (centres unmarked),-19.2
8,CCOc1ccc(S(=O)(=O)c2c[nH]c3ccc(C)cc3c2=O)cc1,24.9
9,CCOC(=O)CCSc1nc(N2CCOCC2)c2c(c1C#N)CC(C)(C)OC2,-11.1
10,CC(C)(C)n1nnnc1C(c1ccc(C(F)(F)F)cc1)N(Cc1ccc(F)cc1)Cc1ccco1 (centres unmarked),8.86
11,COc1ccccc1NC(=S)NCCc1ccc(Cl)cc1,-24.4
12,COc1ccc(CNC(=O)C2CCN(S(=O)(=O)N3CCC4(CC3)OCCO4)CC2)c(OC)c1,4.25
13,O=C(c1ccccc1)c1ccc(OC(=O)C2CCCCC2)cc1,15.9
14,CC(Cc1nnc(SCC(=O)O)n1N)c1ccccc1 (centres unmarked),23.3
15,O=C(Cc1cccs1)N1CCN(c2ccc([N+](=O)[O-])cc2)CC1,-66.1
16,CC1(C)CN=C(NCc2ccccc2)S1,6.77
17,COc1cc(OC)cc(C(=O)NC2CCN(CCCOc3ccccc3)CC2)c1,-70.2
18,CC1=C(C(=O)Nc2ccccc2)C(c2ccncc2)C(C#N)=C(SCC(=O)Nc2ccccc2)N1 (centres unmarked),-25.1
19,CN(C)C(=O)Oc1ccnc2cc(Cl)ccc12,-8.25
20,CC(C)(C)C(=O)NC(=S)Nc1ccc(F)cc1,5.57
21,CC(C)NC(=O)COC(=O)c1ccc(Oc2ccccc2)cc1,1.11
22,Cc1cc(OCC(=O)Nc2nccs2)c2c(C)cc(=O)oc2c1,19.7
23,CCn1cc(C(=O)N2CCN(c3ccc(OC)cc3)CC2)c2cc(OC)c(OC)cc2c1=O,-33.8

row,SMILES,"hERG current change (%, negative = inhibition) at 10uM [%]"
1,COc1ccc(NC2CCCN(C(=O)c3cccnc3SC)C2)cc1OC (centres unmarked),19.6
2,CCOCCCNC(=O)CCC(=O)NNc1nc2ccccc2c2nc(-c3ccccc3)nn12,-47.5
3,Cc1cc(NC(=O)C2CCN(S(=O)(=O)c3cnc[nH]3)CC2)ccc1Br,13.6
4,CC(=O)c1ccc(N2CCN(C(=O)CCS(=O)(=O)c3ccc4c(c3)CCN4C(C)=O)CC2)cc1,3.77
5,Cc1ccc2nc(/C(C#N)=C\c3ccc([N+](=O)[O-])o3)[nH]c2c1,7.57
6,Cc1ccc(NC(=O)CCNC(=O)c2ccccc2Cl)cc1S(=O)(=O)N1CCOCC1,-8.82
7,Cc1ccc(C(=O)NCC(=O)OCC(=O)N2CC(C)OC(C)C2)cc1 (centres unmarked),-8.61
8,COc1ccc(N(CC(=O)N2CCCC2)S(C)(=O)=O)cc1,21.5
9,COc1ccc(NC(=O)c2oc3ccc(S(=O)(=O)N4CCC5(CC4)OCCO5)cc3c2C)cc1,-1.39
10,O=C1CN(C(=O)c2cccc(S(=O)(=O)N3CCCC3)c2)c2ccccc2N1,12.3
11,CCOc1cc(N2CCOCC2)c(OCC)cc1NC(=O)[C@H](C)NC(=O)c1ccco1,25.4
12,O=C(NNc1ncc(C(F)(F)F)cc1Cl)c1ccc(Cl)c(Cl)c1,0.00088
13,OCCCNc1nc(-c2ccccc2)c2cc(Br)ccc2n1,-13.4
14,Cc1c(NS(C)(=O)=O)cccc1-c1nc2cccnc2s1,-5.35
15,COc1cc(/C=N/NC(N)=O)ccc1OC(=O)c1ccco1,1.11
16,Cc1cc(C)n(Cc2ccc(F)cc2)c(=O)c1C#N,3.34
17,CN1C(=O)N(C)C2(c3ccccc3)Nn3c(s/c(=C/c4ccco4)c3=O)=NC12c1ccccc1 (centres unmarked),-2.36
18,O=C(NNC1=C(C(=O)C(F)(F)F)CCC1)c1cccc(O)c1,-0.052
19,COc1ccc(NC(=O)CC2SC(N3CCOCC3)=NC2=O)c(OC)c1 (centres unmarked),-0.426
20,COc1cccc(N(C(=O)c2cccs2)c2nc3ccccc3s2)c1,7.94
